From a protein production outcome set (Wang et al. 2014) come the findings set out here.

This series in a line: label from the status in PepcDB records.
On to “MFVSHLSFPHLIEERKMKLSTLALAPITAALLTFNASAKGHDHDNQRAIFFPGETVQDTVKVEVEPSATQSLKLGQKINNLYERQFDNSQATVQKLGKNTYWIGVNYYNATVVVNEDSVLLIDPLGDGRIDALFKGVQSITNKPITTIMYSHYHLDHLGGGNQLVDLIKKNYPKVDKIRVIASQTVADKINQHAEVGENGVKTPKVPAPNDIYDLTKPQTVQFGSMKIKMMAPKGSGHTPDNTMILIPSDRVLHFADMINPDQLPFYNFAGAEHFHGYEEDLQSLLSKPLSKQWDFINGGHGNIGSKQDVKDLLEYIADIRTEVGKQLEVAPYTPVLSDGNHFVWFKRWQDEITNNVHTALANKYGHMYGFDSGVVETHAAMILADMIDH”, for which the protein production entry is given as “failed”.

Regarding “MGSASEQRVTLTNADKVLYPATGTTKSDIFDYYAGVAEVMLGHIAGRPATRKRWPNGVDQPAFFEKQLALSAPPWLSRATVAHRSGTTTYPIIDSATGLAWIAQQAALEVHVPQWRFVAEPGSGELNPGPATRLVFDLDPGEGVMMAQLAEVARAVRDLLADIGLVTFPVTSGSKGLHLYTPLDEPVSSRGATVLAKRVAQRLEQAMPALVTSTMTKSLRAGKVFVDWSQNSGSKTTIAPYSLRGRTHPTVAAPRTWAELDDPALRQLSYDEVLTRIARDGDLLERLDADAPVADRLTRYRRMRDASKTPEPIPTAKPVTGDGNTFVIQEHHARRPHYDFRLECDGVLVSWAVPKNLPDNTSVNHLAIHTEDHPLEYATFEGAIPSGEYGAGKVIIWDSGTYDTEKFHDDPHTGEVIVNLHGGRISGRYALIRTNGDRWLAHRLKNQKDQKVFEFDNLAPMLATHGTVAGLKASQWAFEGKWDGYRLLVEADHGAVRLRSRSGRDVTAEYPQLRALAEDLADHHVVLDGEAVVLDSSGVPSFSQMQNRGRDTRVEFWAFDLLYLDGRALLGTRYQDRRKLLETLANATSLTVPELLPGDGAQAFACSRKHGWEGVIAKRRDSRYQPGRRCASWVKDKHWNTQEVVIGGWRAGEGGRSSGVGSLLMGIPGPGGLQFAGRVGTGLSERELANLKEMLAPLHTDESPFDVPLPARDAKGITYVKPALVAEVRYSEWTPEGRLRQSSWRGLRPDKKPSEVVRE”, the protein production result is given as “not failed”.

For the sequence “MGSASEQRVTLTNADKVLYPATGTTKSDIFDYYAGVAEVMLGHIAGRPATRKRWPNGVDQPAFFEKQLALSAPPWLSRATVAHRSGTTTYPIIDSATGLAWIAQQAALEVHVPQWRFVAEPGSGELNPGPATRLVFDLDPGEGVMMAQLAEVARAVRDLLADIGLVTFPVTSGSKGLHLYTPLDEPVSSRGATVLAKRVAQRLEQAMPALVTSTMTKSLRAGKVFVDWSQNSGSKTTIAPYSLRGRTHPTVAAPRTWAELDDPALRQLSYDEVLTRIARDGDLLERLDADAPVADRLTRYRRMRDASKTPEPIPTAKPVTGDGNTFVIQEHHARRPHYDFRLERDGVLVSWAVPKNLPDNTSVNHLAIHTEDHPLEYATFEGAIPSGEYGAGKVIIWDSGTYDTEKFHDDPHTGEVIVNLHGGRISGRYALIRTNGDRWLAHRLKNQKDQKVFEFDNLAPMLATHGTVAGLKASQWAFEGKWDGYRLLVEADHGAVRLRSRSGRDVTAEYPQLRALAEDLADHHVVLDGEAVVLDSSGVPSFSQMQNRGRDTRVEFWAFDLLYLDGRALLGTRYQDRRKLLETLANATSLTVPELLPGDGAQAFACSRKHGWEGVIAKRRDSRYQPGRRCASWVKDKHWNTQEVVIGGWRAGEGGRSSGVGSLLMGIPGPGGLQFAGRVGTGLSERELANLKEMLAPLHTDESPFDVPLPARDAKGITYVKPALVAEVRYSEWTPEGRLRQSSWRGLRPDKKPSEVVRE”, the protein production result is recorded as “failed”.

In the case of “MLPPGSNGTAYPGQFALYQQLAQGNAVGGSAGAPPLGPSQVVTACLLTLLIIWTLLGNVLVCAAIVRSRHLRANMTNVFIVSLAVSDLFVALLVMPWKAVAEVAGYWPFGAFCDVWVAFDIMCSTASILNLCVISVDRYWAISRPFRYKRKMTQRMALVMVGLAWTLSILISFIPVQLNWHRDQAASWGGLDLPNNLANWTPWEEDFWEPDVNAENCDSSLNRTYAISSSLISFYIPVAIMIVTYTRIYRIAQVQIRRISSLERAAEHAQSCRSSAACAPDTSLRASIKKETKVLKTLSVIMGVFVCCWLPFFILNCMVPFCSGHPEGPPAGFPCVSETTFDVFVWFGWANSSLNPVIYAFNADFQKVFAQLLGCSHFCSRTPVETVNISNELISYNQDIVFHKEIAAAYIHMMPNAVTPGNREVDNDEEEGPFDRMFQIYQTSPDGDPVAESVWELDCEGEISLDKITPFTPNGFH”, the protein production entry was “failed”.

On to “MMENYKHTTVLLDEAVNGLNIRPDGIYIDGTFGRGGHSRLILSQLGEEGRLLAIDRDPQAIAVAKTIDDPRFSIIHGPFSALGEYVAERDLIGKIDGILLDLGVSSPQLDDAERGFSFMRDGPLDMRMDPTRGQSAAEWLQTAEEADIAWVLKTYGEERFAKRIARAIVERNREQPMTRTKELAEVVAAATPVKDKFKHPATRTFQAVRIWVNSELEEIEQALKSSLNVLAPGGRLSIISFHSLEDRIVKRFMRENSRGPQVPAGLPMTEEQLKKLGGRQLRALGKLMPGEEEVAENPRARSSVLRIAERTNA”, for which the protein production result is on record as “not failed”.

For the sequence “MNGVSEGTRGCSDRQPGVLTRDRSCSRKMNSSGCLSEEVGSLRPLTVVILSASIVVGVLGNGLVLWMTVFRMARTVSTVCFFHLALADFMLSLSLPIAMYYIVSRQWLLGEWACKLYITFVFLSYFASNCLLVFISVDRCISVLYPVWALNHRTVQRASWLAFGVWLLAAALCSAHLKFRTTRKWNGCTHCYLAFNSDNETAQIWIEGVVEGHIIGTIGHFLLGFLGPLAIIGTCAHLIRAKLLREGWVHANRPKRLLLVLVSAFFIFWSPFNVVLLVHLWRRVMLKEIYHPRMLLILQASFALGCVNSSLNPFLYVFVGRDFQEKFFQSLTSALARAFGEEEFLSSCPRGNAPRE”, the protein production result is “failed”.
